Experimental findings from PubChem BioAssay AID488969 (Vanderbilt High Throughput Screening Facility, 2010) are described below.

Whole data set: some 110,000 compounds, median “z-score” near -0.1, cut for the highest 2% near 2. Some of the results follow. Activity calls are given as the source filed them.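 Rule for the calls: active = z-score in the third read window above 3 or below -3; inactive = the rest.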

The target of the experiment is Metabotropic glutamate receptor 8 (Rattus norvegicus) (UniProt P70579). In words: rat mGluR8 modulators via GIRK flux, primary screen, cell-based, thallium flux, HTS (AID 488969). The settings on record: HEK293 rat mGluR8, GIRK (G protein-gated inwardly rectifying potassium channel) thallium flux, FluoZin2; at 10 µM; stronger effect = higher value; submaximal glutamate (EC20) added with thallium.
Chain of UniProt P70579 (P70579 whole entry, looked up): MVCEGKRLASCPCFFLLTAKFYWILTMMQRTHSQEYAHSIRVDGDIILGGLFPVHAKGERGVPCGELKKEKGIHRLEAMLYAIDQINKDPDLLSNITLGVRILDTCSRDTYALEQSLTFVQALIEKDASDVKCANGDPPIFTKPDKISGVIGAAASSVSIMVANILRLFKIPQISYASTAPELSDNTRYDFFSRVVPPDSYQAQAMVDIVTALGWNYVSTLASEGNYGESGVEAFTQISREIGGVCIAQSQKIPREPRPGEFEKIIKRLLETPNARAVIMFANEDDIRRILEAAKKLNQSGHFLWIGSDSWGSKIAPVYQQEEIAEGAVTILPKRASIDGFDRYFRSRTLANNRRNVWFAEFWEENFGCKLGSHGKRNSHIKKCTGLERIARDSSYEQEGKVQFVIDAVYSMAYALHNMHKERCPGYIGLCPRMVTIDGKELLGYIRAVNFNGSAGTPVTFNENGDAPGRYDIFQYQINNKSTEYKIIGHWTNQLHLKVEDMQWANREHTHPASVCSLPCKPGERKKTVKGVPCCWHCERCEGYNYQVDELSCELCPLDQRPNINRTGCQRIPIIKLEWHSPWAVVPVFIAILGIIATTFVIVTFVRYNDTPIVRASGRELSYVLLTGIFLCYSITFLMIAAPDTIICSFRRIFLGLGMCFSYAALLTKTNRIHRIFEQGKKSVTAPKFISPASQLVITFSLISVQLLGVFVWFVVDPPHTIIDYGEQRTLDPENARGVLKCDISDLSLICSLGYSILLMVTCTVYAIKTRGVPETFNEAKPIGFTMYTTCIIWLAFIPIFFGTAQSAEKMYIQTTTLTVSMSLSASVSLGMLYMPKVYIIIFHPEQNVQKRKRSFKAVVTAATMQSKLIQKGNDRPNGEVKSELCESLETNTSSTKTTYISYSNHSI
Turning to `Cc1ccccc1NC(=O)Cn1nnc2c(cnn2-c2ccc(F)cc2)c1=O`, the z-score was -0.00842.

With `COc1nc(N/N=C/c2ccc(C)cc2)nc(N2CCCCC2)n1`, the z-score was -0.166.

The compound `COC(=O)c1ccccc1NC(=O)NC1CCN(Cc2ccccc2)CC1` came in with a z-score of 1.06.

`COc1ccc(/C=C(/NC(=O)c2cccs2)C(=O)N2CCOCC2)cc1OC` yielded a z-score of -0.39.

`CCOC(=O)CC1C(=O)NCCN1Cc1cccc(OC)c1` (stereo not given): the z-score was -0.139.

The compound `CCc1ccc(Nc2ncccc2C#N)cc1` displayed a z-score of -0.0868.

As for `Cc1ccc(/C=N/Nc2cccc(C(=O)O)c2)s1`, the z-score is -1.63.

As for `C/C(=C1/SC(N2CC(C)OC(C)C2)=NC1=O)c1ccccc1` (stereo not given), the z-score was -0.986.

For the compound `COc1cccc(/C=N/NC(=O)Cn2nc(C)c([N+](=O)[O-])c2C)c1O`, the z-score is -0.0586.

The compound `COc1ccc(NC(=O)c2ccc3c(c2)OCO3)cc1Cl` returned a z-score of 0.138.

`CN1CCN(C(CNS(=O)(=O)c2ccc(F)cc2)c2cccnc2)CC1` (stereo not given): the z-score is 0.631.

For `COc1cc2c(cc1NC(=O)CSc1nc3ccccc3[nH]1)oc1ccccc12`, the z-score was -0.238.

With `COC(=O)Cn1cc(/C=N/NC(=O)COc2cccc3cccnc23)c2ccccc21`, the z-score was -0.566.

The compound `O=C(CC(Nc1ccc(Cl)cc1)C(=O)O)c1ccccc1` (stereo not given) displayed a z-score of -0.683.

In turn, `COC(=O)c1ccccc1NC(=O)CN(CCc1ccccc1)S(C)(=O)=O` displayed a z-score of 0.444.

In turn, `COCCCNC(=O)c1cc(C(=O)c2c(-c3c(Cl)cccc3Cl)noc2C)c[nH]1` came in with a z-score of 0.0561.

As to `O=C1C2CCCN2C(c2ccccc2)N1c1cccc(Cl)c1` (stereo not given), the z-score is -0.472.

Turning to `O=C(NN1C(=O)C2C3C=CC(C4CC34)C2C1=O)c1ccc(Cl)cc1` (stereo not given), the z-score is -0.221.

For the compound `CCOc1cc(NS(=O)(=O)c2ccc(OC)cc2)c(OCC)cc1NC(=O)c1ccco1`, the z-score is -0.0318.

Compound `CC1=CC(C)(C)N2C(=O)C3(C(C#N)=C(N)Oc4cc(C)oc(=O)c43)c3cccc1c32` (stereo not given) came in with a z-score of -0.19.

Compound `CCOC(=O)c1ccc(NC(=O)CCc2c(C)nc3ncnn3c2C)cc1` showed a z-score of -1.01.

On to `CCOC(=O)C1=C(C)NC2=C(C(=O)CC(C)(C)C2)C1c1ccc(N(C)C)cc1` (stereo not given), for which the z-score was determined as 1.07.

Consider `CN(C(=O)Nc1ccc(S(=O)(=O)N(C)C)cc1)C1CCCCC1`, for which the z-score was -0.0267.

In the case of `CC(=O)N1CCN(CC(=O)c2ccc(Br)cc2)CC1`, the z-score was -0.0782.

Turning to `COc1ccc(OC)c(NC(=O)CN(c2ccc(C(C)C)cc2)S(=O)(=O)c2c(C)noc2C)c1`, the z-score is -0.204.

In turn, `COc1ccc(NC(=O)CSc2nnc(-c3cccs3)n2-c2ccccc2)cc1` yielded a z-score of -0.000773.

Consider `CCCCNC(c1ccccc1)c1ccncc1` (stereo not given), for which the z-score is -0.241.

Compound `CCOC(=O)C1C(=O)CC(C)(O)C(C(=O)OCC)C1c1ccccc1OC` (stereo not given) had a z-score of 0.134.

The compound `COc1ccc(C(=O)NC2(C(F)(F)F)C(=O)Nc3c2c(=O)[nH]c(=O)n3CCc2ccc(OC)c(OC)c2)cc1` (stereo not given) gave a z-score of 0.0668.

`Cc1ccc(N2C(=O)/C(=C/c3ccco3)SC2=S)cc1`: the z-score is -0.0828.

`CCCNC(=O)Cc1ccsc1` registered a z-score of 0.11.

As to `Cc1[nH]c(=O)[nH]c(=O)c1/C=N/NC(=O)[C@@H](NC(=O)OC(C)(C)C)C(C)C`, the z-score came out at 0.235.

Compound `CCCCS(=O)CC(O)COCC` (stereo not given) had a z-score of 0.372.

In turn, `O=[N+]([O-])c1ccc(Nc2nc(N/N=C\c3ccc4c(c3)OCO4)nc(N3CCCCC3)n2)cc1` came in with a z-score of -0.0977.

Turning to `O=C(Cc1ccccc1)NC(Nc1cccc2ccccc12)C(Cl)(Cl)Cl` (stereo not given), the z-score is 0.0891.

In the case of `CCOc1ccc(/C=N/NC(=O)CC(=O)Nc2ccc(Cl)c(Cl)c2)cc1`, the z-score was -0.265.

On to `CC(C)N1C(=O)c2ccccc2C1C(=O)NC1CCCCCC1` (stereo not given), for which the z-score is 0.000285.

Compound `COc1cccc(-n2c(COc3ccccc3C)nnc2SCC(=O)O)c1` showed a z-score of -0.14.

In the case of `CCOC(=O)CN1N=C(/C=C/c2ccccc2)CCC1=O`, the z-score is -0.0458.

With `CCOc1ccc(-n2nc3ccc(NC(=O)c4ccc5c(c4)OCCO5)cc3n2)cc1`, the z-score is -0.0865.

On to `C=CCNC(=O)CC(=O)N/N=C/c1cccc(Br)c1`, for which the z-score was determined as 0.0243.

As for `Cc1ccc(NC(=O)c2ccc(OC(F)F)cc2)cc1S(=O)(=O)N(C)C`, the z-score is -0.526.

On to `CCC1(C)OCC(Cn2c3ccccc3c3ccccc32)O1` (stereo not given), for which the z-score is active: 3.89.

In the case of `COc1ccccc1C(=O)NNC(=O)c1ccccc1[N+](=O)[O-]`, the z-score was -0.346.

The compound `Cc1ccc(S(=O)(=O)CCC(=O)OCC(=O)c2c(C)[nH]c3ccccc23)cc1` returned a z-score of -0.175.

`COC(=O)c1c(NC(=O)CSc2nc3nc(C)cc(C)n3n2)sc(C)c1C`: the z-score is -0.986.

`CC1=C(C(=O)OCC2CCCO2)C(c2ccccc2)NC(=O)N1` (stereo not given) registered a z-score of -0.168.

The compound `CCC(C)c1ccc(NC(=O)c2cccnc2)cc1` (stereo not given) came in with a z-score of 0.264.

On to `OCc1nn2c(c1Br)NC(c1ccccc1)CC2C(F)(F)F` (stereo not given), for which the z-score was -0.296.

Consider `Cc1cc(Br)ccc1OCC(=O)N1CCCCCC1`, for which the z-score was -0.274.

As for `C/C(=N\NC(=O)COc1ccc(C#N)cc1)c1ccc(N2CCOCC2)cc1`, the z-score came out at 1.67.

As to `c1ccc(-c2noc(-c3cccc4ccccc34)n2)cc1`, the z-score was -0.0289.

`COc1cccc(/C=C2\SC(=O)N(CCC(=O)NNC(=O)c3ccccc3Cl)C2=O)c1` had a z-score of -0.0918.

`CC(=O)c1c(C)[nH]c(C(=O)NCCN2CCC(C)CC2)c1C`: the z-score was 0.191.

The compound `OC(COc1ccc2cc(Br)ccc2c1)CN1CCCC1` (stereo not given) showed a z-score of -0.288.

`Nc1ccc(-c2nc3ccc(-c4nc5ccccc5o4)cc3[nH]2)cc1` yielded a z-score of 0.302.

Compound `Cc1ccccc1NS(=O)(=O)c1cc(C(N)=O)ccc1C` registered a z-score of -0.42.

The compound `CC(=O)N1N=C(c2ccc(C)cc2)OC1c1ccc(C(C)C)cc1` (stereo not given) yielded a z-score of -0.402.

`CCNC(=S)NNC(=O)CCn1c2ccccc2c2ccccc21` displayed a z-score of 1.79.

Turning to `Cc1cccc2c1NC(=O)C2(c1ccc(O)cc1)c1ccc(O)cc1`, the z-score was -0.224.

In the case of `Cc1ccc(NC(=O)CCn2cccc2)cc1F`, the z-score was -0.0137.

Take `Cc1cc(N2C(=O)C(O)=C(C(=O)c3ccco3)C2c2ccc(O)cc2)no1` (stereo not given): the z-score is -0.207.

`COc1cccc(Nc2nc(-c3sc(N)nc3C)cs2)c1` had a z-score of -0.626.

For the compound `CC(C)C(=O)Nc1ccc(C(=O)NNC(=O)CCc2ccccc2)cc1`, the z-score was -0.00881.

As to `C=CCn1c(CNC(=O)c2cccs2)nnc1SCc1ccc(Cl)cc1Cl`, the z-score is -0.28.

The compound `O=C(NC(=S)Nc1ccc(S(=O)(=O)N2CCCCC2)cc1)c1ccccc1` displayed a z-score of 0.0869.

Regarding `CCCCCC(=O)NC(Nc1ccc(S(N)(=O)=O)cc1)C(Cl)(Cl)Cl` (stereo not given), the z-score is -0.213.

Consider `O=c1ccc(OCCOc2ccccc2)nn1-c1ccccc1`, for which the z-score is -0.448.

`CN(C)S(=O)(=O)c1cccc(-c2nn(-c3ccccc3)cc2/C=C(/C#N)C(=O)NCc2ccco2)c1` displayed a z-score of -0.361.

In turn, `CCOC(=O)c1c(N)sc(C(O)(C(F)(F)F)C(F)(F)F)c1-c1ccc(Cl)cc1` came in with a z-score of -0.00372.
